In paper PMC4336329 (PLoS ONE, 2015):
Among all 310,000 compounds or so, about 14,000 (4.5%) showed an effect of 50% or more. Effects have a minus sign here. Some of the results follow.

target: human ether-à-go-go-related gene (hERG) potassium channel (human, UniProt Q12809); assay: primary screen, population patch clamp on CHO cells stably expressing hERG
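Note: peak tail current of the secondary pulse compared with the same well before compound.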

Sequence of human ether-à-go-go-related gene (hERG) potassium channel (Q12809 whole entry, looked up): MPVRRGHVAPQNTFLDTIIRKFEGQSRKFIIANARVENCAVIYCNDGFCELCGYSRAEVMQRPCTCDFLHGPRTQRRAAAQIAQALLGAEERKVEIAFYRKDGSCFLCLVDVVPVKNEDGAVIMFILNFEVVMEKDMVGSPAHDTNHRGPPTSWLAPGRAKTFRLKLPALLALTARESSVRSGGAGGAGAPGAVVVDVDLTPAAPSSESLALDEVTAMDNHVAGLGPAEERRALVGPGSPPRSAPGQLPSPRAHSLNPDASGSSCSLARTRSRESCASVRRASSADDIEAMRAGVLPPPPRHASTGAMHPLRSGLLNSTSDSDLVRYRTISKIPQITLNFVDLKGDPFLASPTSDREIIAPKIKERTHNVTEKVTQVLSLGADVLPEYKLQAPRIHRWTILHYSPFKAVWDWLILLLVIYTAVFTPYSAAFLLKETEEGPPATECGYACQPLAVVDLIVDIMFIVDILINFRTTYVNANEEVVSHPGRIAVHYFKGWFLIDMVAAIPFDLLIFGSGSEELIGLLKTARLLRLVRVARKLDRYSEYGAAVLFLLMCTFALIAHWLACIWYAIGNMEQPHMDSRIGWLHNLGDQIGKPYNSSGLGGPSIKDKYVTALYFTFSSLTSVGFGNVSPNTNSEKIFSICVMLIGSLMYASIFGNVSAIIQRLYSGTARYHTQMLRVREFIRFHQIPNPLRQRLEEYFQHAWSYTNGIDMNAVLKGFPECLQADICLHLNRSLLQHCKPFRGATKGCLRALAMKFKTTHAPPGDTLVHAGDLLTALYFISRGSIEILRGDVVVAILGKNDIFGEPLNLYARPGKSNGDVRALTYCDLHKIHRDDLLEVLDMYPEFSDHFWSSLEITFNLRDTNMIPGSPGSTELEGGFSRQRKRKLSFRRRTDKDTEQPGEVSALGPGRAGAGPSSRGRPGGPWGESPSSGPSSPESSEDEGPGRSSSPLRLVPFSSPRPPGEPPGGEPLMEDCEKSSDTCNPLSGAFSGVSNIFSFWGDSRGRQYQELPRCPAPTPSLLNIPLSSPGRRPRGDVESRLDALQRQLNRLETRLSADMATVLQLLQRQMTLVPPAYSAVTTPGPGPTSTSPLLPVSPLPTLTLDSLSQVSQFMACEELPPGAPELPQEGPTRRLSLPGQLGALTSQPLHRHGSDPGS

| SMILES | hERG current change (%, negative = inhibition) at 10uM |
| --- | --- |
| O=C(NNc1c(Cl)cccc1Cl)c1c(F)cccc1Cl | 11.7% |
| C/C(=N\NC(=O)c1cc2c(s1)CCC(C)C2)c1ccc[nH]1 (stereo not shown) | 10% |
| COc1ccc(C(C)(C)C)cc1NC(=O)COC(=O)c1ccc([N+](=O)[O-])o1 | 10.6% |
| CN1C(=O)N(CC(=O)NCc2ccc(Cl)cc2Cl)C(=O)C12CCCCC2 | -27.8% |
| COc1ccc(-c2ccc([C@H]3[C@@H]4C=CCC[C@@]4(C)C(=O)N3Cc3ccccc3)c(F)c2)cc1 | 8.98% |
| Nc1nonc1-n1nnc(C(=O)N/N=C/C2CC=CCC2)c1CSc1ccccc1 (stereo not shown) | -1.79% |
| CCc1ccc(OC)c(S(=O)(=O)N2CCN(C(=O)c3ccco3)CC2)c1 | 3.26% |
| COc1cc(NC(=O)c2cccnc2)ccc1-c1cc2ccccc2oc1=O | -0.0945% |
| O=C(Nc1nc2ccccc2c2nc3ccccc3n12)c1ccc(F)cc1 | 5.69% |
| CCCS(=O)(=O)c1nc(S(=O)(=O)c2ccc(C)cc2)c(NCc2ccccn2)s1 | 2.9% |
| CCOC(=O)C(=O)/C(C#N)=C/Nc1ccccc1 | 10.9% |
| CCN(CC)C(=S)Nc1ccc([N+](=O)[O-])cc1 | -13.3% |
| Br.CCCCCCCCCn1c2c(c(=N)c3c1CCC3)CCC2 | -74.1% |
| CC(C)n1nc(C(=O)NC2CCCCCC2)c2ccccc2c1=O | -12% |
| Cc1ccc(C)c(NS(=O)(=O)c2csc(C(N)=O)c2)c1 | 12.8% |
| CCc1ccc2[nH]c(=O)c(CN(CCN(CC)CC)C(=O)NC3CCCCC3)cc2c1 | -66.6% |
| Cn1c(=O)n(-c2cccc(Cl)c2)c(=O)c2c3c(sc21)COC(C)(C)C3 | 12.4% |
| CCCCCOC(=O)Cc1c(O)c2ccccc2n(C)c1=O | -7.44% |
| Cc1csc(C(=O)NCC(=O)NNC(=O)c2cccc(Cl)c2)c1 | 3.15% |
| N#CCSc1nc(-c2ccccc2)nc2ccc(F)cc12 | 16.8% |
| COc1ccc(C(=O)NNC(=O)CSc2nc3c([nH]2)c(=O)n(C)c(=O)n3C)cc1 | 34.2% |
| CCC1CCCCN1C(=O)CSc1nc(N)c(NC(=O)c2ccco2)c(=O)[nH]1 (stereo not shown) | 12.1% |
| Cc1ccccc1NC(=O)Cn1c(C)nc2ccc(N)cc2c1=O | 7.11% |

| SMILES | hERG current change (%, negative = inhibition) at 10uM |
| --- | --- |
| N#Cc1cc2c(nc1SCC(=O)Nc1sc3c(c1C#N)CCC3)CCCCCC2 | 8.81% |
| CC(c1ccc(F)cc1)n1cc(C(=O)NCCN(C)C)nn1 (stereo not shown) | 37.5% |
| COc1cccc(N=Nc2c(=O)[nH]n3c(=O)c4c([nH]c23)CCC4)c1 | 25% |
| O=C(COC(=O)C1COc2ccccc2O1)NC1CCS(=O)(=O)C1 (stereo not shown) | 5.86% |
| CCOc1cc(CN2CCN(c3ccc(C(C)=O)cc3)CC2)ccc1OC | -23.5% |
| CCCC(=O)NCc1ccccc1Cl | -8.63% |
| COC(=O)N1CC(C)N(C(=O)OC)CC1C (stereo not shown) | 12.7% |
| CCCc1ncc(C(O)(c2ccccc2)c2ccccc2)n1C.Cl | 3.89% |
| CC(C)OC1(c2ccccc2)OC(=O)c2ccccc21 (stereo not shown) | -25.8% |
| COC(=O)c1sccc1Oc1c(Cl)cccc1[N+](=O)[O-] | -0.801% |
| Cc1ccc(N2CC(C(=O)Nc3ccccc3C(=O)NC3CCCCC3)CC2=O)cc1 (stereo not shown) | -5.81% |
| COc1ccc(-n2nc(C(=O)NCC(=O)Nc3ccc(F)cc3)c3ccccc3c2=O)cc1 | 21% |
| COc1cc(OC)cc(C(=O)OCC(=O)NCc2ccc3c(c2)OCO3)c1 | 12.9% |
| CC(=O)Nc1ccc(S(=O)(=O)NC2CC3CCC2C3)cc1 (stereo not shown) | -0.107% |
| Cc1ccc(CCNC(=O)C2CCC(CNc3c(N4CCC(C)CC4)c(=O)c3=O)CC2)cc1 (stereo not shown) | -3.48% |
| CCCn1c(SCCN2C(=O)c3ccccc3C2=O)n[nH]c1=O | 9.04% |
| Cc1ccc(NC(=O)COC(=O)CN2C(=O)C3CCCCC3C2=O)cc1S(=O)(=O)N1CCOCC1 (stereo not shown) | -4.62% |
| CCCOC(=O)Cn1cnc2scc(-c3ccc(OC)cc3)c2c1=O | 5.41% |
| CCCCc1cc(-c2n[nH]c(=S)o2)c2ccccc2n1 | 16% |
| COC(=O)c1csc2c(C(F)(F)F)cc(N3CCN(C(=O)Nc4ccccc4)CC3)nc12 | 18.9% |
| O=S(=O)(NCc1ccco1)c1ccc(Cl)nc1 | 3.9% |
| COc1cccc(-c2nc(-c3ccccc3)[nH]c(=O)c2C#N)c1 | 19.2% |
| O=C1C(C=NCc2ccco2)=C(O)c2ccccc21 | -12% |
